± gives the standard deviation of the averaged measurements. Some of the results follow.
Assays:
[1] = tested on: murine small intestinal organoids (ENR+CD Paneth differentiation); test: cellular ATP (CellTiter-Glo 3D) relative to plate median (log10 fold change); higher = more viable cells; details: 6 d
[2] = tested on: murine small intestinal organoids (ENR+CD Paneth differentiation); test: carbachol-stimulated secreted lysozyme activity relative to plate median (log10 fold change); higher = more Paneth cell lysozyme secretion; details: 6 d, carbachol 10 µM
[3] = tested on: murine small intestinal organoids (ENR+CD Paneth differentiation); test: basal (non-stimulated) secreted lysozyme activity relative to plate median (log10 fold change); higher = more Paneth cell lysozyme secretion; details: 6 d
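For basal (non-stimulated) secreted lysozyme activity relative to plate median in this document: ISC-enriched organoid precursors grown as 2.5D pseudo-monolayer on Matrigel, compound given on day 0 and day 3, plate values LOESS-normalized before median fold change, three murine donors.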
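For cellular ATP (CellTiter-Glo 3D) relative to plate median in this document: 2.5D pseudo-monolayer culture of ISC-enriched organoids partly embedded atop Matrigel, compound added on day 0 and again on day 3, per-plate LOESS correction before median fold change.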

SMILES	cellular ATP (log10) ([1]; 0.08 µM)	cellular ATP (log10) ([1]; 0.4 µM)	cellular ATP (log10) ([1]; 2 µM)	cellular ATP (log10) ([1]; 10 µM)	carbachol-stimulated secreted lysozyme activity (log10) ([2]; 0.08 µM)	carbachol-stimulated secreted lysozyme activity (log10) ([2]; 0.4 µM)	carbachol-stimulated secreted lysozyme activity (log10) ([2]; 2 µM)	carbachol-stimulated secreted lysozyme activity (log10) ([2]; 10 µM)	basal (log10) ([3]; 0.08 µM)	basal (log10) ([3]; 0.4 µM)	basal (log10) ([3]; 2 µM)	basal (log10) ([3]; 10 µM)
CC(C)CCN1c2nc(Nc3cc(F)c(O)c(F)c3)ncc2N(C)C(=O)C1C (configuration not stated)	0.186 ± 0.09	0.029 ± 0.18	-0.0116 ± 0.31	-0.7 ± 0.34	0.114 ± 0.056	0.163 ± 0.063	0.0484 ± 0.044	-0.44 ± 0.088	0.141 ± 0.041	0.126 ± 0.051	-0.0659 ± 0.057	-0.285 ± 0.072
Cc1[nH]c2ccccc2c1CCNCc1ccc(/C=C/C(=O)NO)cc1 [Panobinostat (LBH589)]	0.295 ± 0.18	0.212 ± 0.15	-0.537 ± 0.2	-1 ± 0.66	-0.0896 ± 0.16	-0.0773 ± 0.012	-0.329 ± 0.091	-0.379 ± 0.039	0.00164 ± 0.068	-0.0266 ± 0.039	-0.153 ± 0.064	-0.217 ± 0.083
CCN[C@H]1CN(CCCOC)S(=O)(=O)c2sc(S(N)(=O)=O)cc21 [Brinzolamide]	-0.00717 ± 0.27	-0.0681 ± 0.16	0.118 ± 0.099	0.0779 ± 0.22	-0.0961 ± 0.13	0.00972 ± 0.0019	-0.0214 ± 0.029	0.0296 ± 0.014	0.133 ± 0.095	0.0841 ± 0.098	0.0586 ± 0.088	0.0598 ± 0.051
CCn1c(N)c(C(=O)NC)c(=O)c2ccc(C#CC(C)(O)COC)nc21 (configuration not stated)	0.227 ± 0.11	0.2 ± 0.22	0.214 ± 0.37	0.194 ± 0.41	0.0276 ± 0.095	0.107 ± 0.16	0.205 ± 0.014	0.159 ± 0.095	0.0362 ± 0.094	0.0837 ± 0.086	0.0945 ± 0.069	-0.054 ± 0.098
Cc1ccccc1C(C(=O)NC1CCCCC1)N(C(=O)Cn1ccnc1C)c1cccc(F)c1 (configuration not stated)	0.309 ± 0.28	0.154 ± 0.26	0.281 ± 0.18	0.336 ± 0.28	0.0413 ± 0.054	0.205 ± 0.23	0.0259 ± 0.04	-0.0395 ± 0.015	0.0554 ± 0.1	0.0416 ± 0.033	0.0393 ± 0.061	-0.00739 ± 0.054
O=C(NC(NC(=S)Nc1ccc(F)c([N+](=O)[O-])c1)C(Cl)(Cl)Cl)C(c1ccccc1)c1ccccc1 (configuration not stated)	-0.362 ± 0.17	-0.0926 ± 0.05	-0.244 ± 0.27	-0.478 ± 0.32	0.00234 ± 0.044	-0.0787 ± 0.046	-0.114 ± 0.056	-0.284 ± 0.26	0.0991 ± 0.14	-0.0255 ± 0.12	-0.0993 ± 0.025	-0.122 ± 0.27
C[S+]([O-])c1ccc(-c2nc(-c3ccc(F)cc3)c(-c3ccncc3)[nH]2)cc1 (configuration not stated)	-0.0491 ± 0.25	0.061 ± 0.14	0.145 ± 0.13	0.33 ± 0.19	-0.0457 ± 0.062	0.00562 ± 0.085	0.0505 ± 0.093	0.0563 ± 0.17	0.0252 ± 0.12	0.0911 ± 0.1	0.064 ± 0.015	0.0197 ± 0.066
Nc1nc(NCCNc2ncc(-n3ccnc3)c(-c3ccc(Cl)cc3Cl)n2)ccc1[N+](=O)[O-]	0.0922 ± 0.27	0.0796 ± 0.17	0.0395 ± 0.25	-0.0518 ± 0.22	0.107 ± 0.24	-0.11 ± 0.092	-0.112 ± 0.12	-0.385 ± 0.043	0.0522 ± 0.18	-0.0533 ± 0.064	-0.128 ± 0.018	-0.218 ± 0.095
COc1ccc(COc2ccc(Cc3cnc(N)nc3N)cc2OC)cc1	-0.0423 ± 0.27	-0.284 ± 0.44	0.0286 ± 0.35	-0.0381 ± 0.23	0.0183 ± 0.12	0.0845 ± 0.074	-0.0406 ± 0.012	0.00351 ± 0.038	0.00638 ± 0.084	0.0135 ± 0.06	-0.0603 ± 0.017	-0.0181 ± 0.048
Cc1cccc(-c2[nH]ncc2-c2ccc3ncccc3n2)n1	-0.222 ± 0.44	0.22 ± 0.47	-0.173 ± 0.21	-0.1 ± 0.77	-0.0704 ± 0.13	0.187 ± 0.2	0.179 ± 0.15	0.00111 ± 0.031	0.107 ± 0.2	0.147 ± 0.16	0.0949 ± 0.042	-0.0147 ± 0.069
CCc1cccc2c3c([nH]c12)C(CC)(CC(=O)O)OCC3 (configuration not stated) [Etodolac]	-0.0613 ± 0.028	0.0492 ± 0.065	0.00824 ± 0.12	0.0228 ± 0.051	0.0691 ± 0.03	0.177 ± 0.19	0.123 ± 0.043	-0.0224 ± 0.12	0.046 ± 0.081	0.0361 ± 0.093	0.0519 ± 0.1	-0.00893 ± 0.054
O=C1[C@H](Cc2ccc(O)cc2)N2C(=O)CCN(C(=O)NCc3ccccc3)[C@H]2CN1Cc1cccc2ccccc12	0.104 ± 0.18	0.104 ± 0.089	0.143 ± 0.043	-0.416 ± 0.4	0.153 ± 0.21	0.25 ± 0.22	0.0055 ± 0.046	-0.112 ± 0.082	0.0372 ± 0.073	0.0369 ± 0.042	0.0454 ± 0.044	-0.125 ± 0.04
O=C(NC[C@H]1CN(c2ccc(N3CCOCC3=O)cc2)C(=O)O1)c1ccc(Cl)s1 [Rivaroxaban]	0.0731 ± 0.13	0.168 ± 0.21	0.11 ± 0.25	0.0254 ± 0.1	0.0961 ± 0.14	0.0827 ± 0.34	0.0113 ± 0.024	-0.0404 ± 0.088	0.0876 ± 0.097	-0.0347 ± 0.06	0.225 ± 0.2	-0.0428 ± 0.052
Cn1cnc2c(F)c(Nc3ccc(Br)cc3Cl)c(C(=O)NOCCO)cc21 [Selumetinib (AZD6244)]	-0.544 ± 0.88	-0.0758 ± 0.23	-0.323 ± 0.22	-0.39 ± 0.28	-0.0816 ± 0.27	0.0268 ± 0.04	-0.00753 ± 0.32	-0.181 ± 0.15	-0.047 ± 0.13	0.000287 ± 0.063	-0.0541 ± 0.086	-0.133 ± 0.038
C1=N/C2=N/c3ccc(OCCN4CCCC4)c(c3)COC/C=C/COCc3cccc(c3)C(=C1)N2 [Pacritinib (SB1518)]	-0.00582 ± 0.19	0.0987 ± 0.23	-0.235 ± 0.19	-1.28 ± 0.55	0.0245 ± 0.11	-0.0861 ± 0.049	-0.377 ± 0.03	-0.549 ± 0.024	0.0914 ± 0.068	-0.0343 ± 0.095	-0.219 ± 0.13	-0.275 ± 0.11
CN(C)C(=O)c1ccc(S(=O)(=O)c2ccc(NC(=O)C(C)(O)C(F)(F)F)c(Cl)c2)cc1 (configuration not stated)	-0.334 ± 0.08	-0.158 ± 0.17	-0.255 ± 0.14	-0.35 ± 0.067	0.0653 ± 0.055	-0.0874 ± 0.046	-0.241 ± 0.2	-0.137 ± 0.12	0.087 ± 0.04	-0.0281 ± 0.082	-0.0178 ± 0.1	-0.0507 ± 0.13
CC(Oc1cc(-c2cnn(C3CCNCC3)c2)cnc1N)c1c(Cl)ccc(F)c1Cl [(S)-crizotinib]	0.241 ± 0.15	0.0544 ± 0.086	0.112 ± 0.23	0.0194 ± 0.41	0.151 ± 0.012	0.007 ± 0.15	-0.103 ± 0.071	-0.163 ± 0.17	0.193 ± 0.17	0.00932 ± 0.021	-0.0338 ± 0.09	-0.0676 ± 0.097
Cc1nc(C(=O)NCC(=O)O)c(O)c2ccc(Oc3ccccc3)cc12	0.327 ± 0.25	0.284 ± 0.17	0.29 ± 0.029	0.238 ± 0.16	0.135 ± 0.14	0.363 ± 0.2	0.139 ± 0.034	0.0565 ± 0.044	0.0773 ± 0.14	0.17 ± 0.19	0.0944 ± 0.032	0.0304 ± 0.03
COc1ccc2cccc(CCNC(C)=O)c2c1 [Agomelatine]	0.106 ± 0.12	0.0808 ± 0.088	-0.198 ± 0.36	0.0236 ± 0.012	0.0416 ± 0.03	0.147 ± 0.18	-0.0551 ± 0.23	0.0287 ± 0.14	0.026 ± 0.046	0.0798 ± 0.067	0.0686 ± 0.077	-0.0327 ± 0.046
C=CCn1c(=O)c2cnc(Nc3ccc(N4CCN(C)CC4)cc3)nc2n1-c1cccc(C(C)(C)O)n1	0.165 ± 0.12	-0.45 ± 0.2	-0.804 ± 0.31	-1.03 ± 0.4	0.0995 ± 0.014	-0.247 ± 0.071	-0.23 ± 0.075	-0.302 ± 0.11	0.0383 ± 0.059	-0.153 ± 0.074	-0.215 ± 0.081	-0.181 ± 0.12
O=C1NC(=O)C(c2ccccc2[N+](=O)[O-])=C1Nc1ccc(O)c(Cl)c1	0.222 ± 0.25	0.06 ± 0.2	0.078 ± 0.39	0.264 ± 0.28	0.104 ± 0.24	0.00425 ± 0.18	-0.016 ± 0.23	0.00789 ± 0.14	0.113 ± 0.16	0.0613 ± 0.087	0.00584 ± 0.11	0.0317 ± 0.07
Nc1cccc2c1C(=O)N(C1CCC(=O)NC1=O)C2=O (configuration not stated) [Pomalidomide]	0.0629 ± 0.11	0.224 ± 0.087	-0.216 ± 0.38	-0.305 ± 0.53	-0.0654 ± 0.011	-0.141 ± 0.074	-0.139 ± 0.0077	-0.253 ± 0.0092	-0.00216 ± 0.04	-0.00147 ± 0.068	-0.0383 ± 0.031	-0.126 ± 0.033
Oc1cc(O)cc(/C=C/c2ccc(O)c(O)c2)c1 [Piceatannol]	0.232 ± 0.17	-0.0905 ± 0.17	0.0741 ± 0.39	-0.071 ± 0.4	-0.0254 ± 0.0018	0.046 ± 0.082	-0.0908 ± 0.19	-0.176 ± 0.15	0.0802 ± 0.11	0.0431 ± 0.084	0.0253 ± 0.14	-0.0211 ± 0.12
CC(C)(C)c1cnc(CSc2cnc(NC(=O)C3CCNCC3)s2)o1	-0.413 ± 0.65	-0.14 ± 0.25	-0.569 ± 0.15	-0.779 ± 0.34	-0.199 ± 0.29	-0.144 ± 0.13	-0.306 ± 0.24	-0.319 ± 0.16	-0.0964 ± 0.15	-0.0928 ± 0.086	-0.192 ± 0.17	-0.216 ± 0.12
COc1cc(N2CCC(N(C)C)CC2)ccc1Nc1ncc(Cl)c(Nc2ccccc2P(C)(C)=O)n1	-0.0545 ± 0.28	0.0607 ± 0.27	-0.558 ± 0.43	-1.68 ± 0.43	0.17 ± 0.067	-0.0552 ± 0.12	-0.336 ± 0.17	-0.467 ± 0.082	-0.0133 ± 0.028	-0.0621 ± 0.048	-0.196 ± 0.12	-0.272 ± 0.19
O=C(C=Cc1ccccc1)NC(NC(=S)Nc1ccc(Cl)cc1)C(Cl)(Cl)Cl (configuration not stated)	-0.173 ± 0.77	0.185 ± 0.097	0.0186 ± 0.54	-0.535 ± 0.41	-0.263 ± 0.4	0.0386 ± 0.088	-0.063 ± 0.057	-0.283 ± 0.37	-0.0186 ± 0.26	0.0244 ± 0.065	0.0217 ± 0.066	-0.0292 ± 0.35
